Experimental data taken from PubChem BioAssay AID1345082 (National Center for Advancing Translational Sciences (NCATS), 2018).
Hit rate of the full screen: of about 94,000 compounds, about 4,000 (4.3%) were called active. The shares of active, inactive and inconclusive entries below differ from those in the screen. Calls follow the shape of the dose curve; as a rule, active = well fitted inhibition curve with a large enough effect; inconclusive = small, poorly fitted or top-dose-only effect; inactive = no such curve, though single readings can be large or run the other way. A potency beside an inconclusive call is a rough fit, not a confirmed value.

Test: Cytotoxic Profiling in NIH 3T3 Cell Line of Diverse Libraries Using Quantitative High-Throughput Screening; also: nearly all actives have a fitted effect of over 55% in size
Conditions: NIH 3T3 viability, CellTiter-Glo ATP luminescence, 48-72 h; series mostly up to 96.7 µM
In short: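 Viability of NIH 3T3 cells after 48 or 72 hr compound treatment at 37 °C was assessed by CellTiter-Glo, with luminescence imaged following a 10 min room-temperature step.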
Potency is read from the fitted curve at half-maximal effect; tags tell the direction and shape of the fitted curve.

Row | Compound | Potency
1 | O=C(c1ccc(Oc2ccccc2)cc1)N1CCc2c(n(Cc3cccnc3)n(-c3ccccc3)c2=O)C1 | inconclusive: 44.7 µM [inhibitor, partial curve, poor fit]
2 | Cn1ncc2c(C(=O)NC3CC3)cc(-c3ccccc3F)nc21 | inconclusive: 44.7 µM [inhibitor, partial curve, poor fit]
3 | COc1ccc(C(=O)N2CCC(C(=O)N3CCC(N4CCOC4=O)CC3)CC2)cc1 | inactive
4 | CN(C)c1cccc(NC(=O)Cc2c[nH]c3ncc(-c4cccnc4)cc23)c1 | inconclusive: 56.2 µM [inhibitor, partial curve, poor fit]
5 | COC(=O)[C@@H]1Cc2ncn(Cc3ccc(OC)cc3)c2CN1Cc1ccc(F)cc1 | inconclusive: 50.1 µM [inhibitor, partial curve, poor fit]
6 | CC(=O)c1ccc(-c2nc(C3CCOC3)no2)s1 (stereo unspecified) | inactive
7 | COC[C@@H]1CN(Cc2cccc(OC)n2)C[C@H]1C(=O)N(C)C | inactive
8 | O=C(Nc1ccc([C@@H](O)[C@H]2COCC(=O)N2Cc2ccccc2F)cc1)c1ccc2c(c1)OCO2 | inconclusive: 79.4 µM [inhibitor, single point]
9 | O=C1CCN(CC(O)COc2ccccc2)c2ccc(F)cc2CN1CC1CC1 (stereo unspecified) | inactive
10 | Fc1ccccc1Nc1ccnc(N2CC3CCC(C2)N3CC(F)(F)F)n1 | inconclusive: 44.7 µM [inhibitor, partial curve, poor fit]
11 | Cc1cc(C(F)(F)F)n(CC(C)Cn2cc(-c3cncnc3)nn2)n1 (stereo unspecified) | inactive
12 | CCN(Cc1cccc2nonc12)CC1CCCN(CCc2cccc(OC)c2)C1 (stereo unspecified) | inconclusive: 56.2 µM [inhibitor, partial curve, poor fit]
13 | CC(CN)(CN1CCOCC1)c1ccccn1 (stereo unspecified) | inactive
14 | CCOC(=O)c1ccc(NC(=O)Cn2c(N3CCN(c4ccccc4)CC3)nc(C)cc2=O)cc1 | active: 31.6 µM
15 | COc1ccc(-c2ccc3ncc(Nc4ccccc4C)n3n2)cn1 | active: 89.1 µM
16 | CCCc1noc(-c2cccn3c(CNC(=O)c4cccnc4)nnc23)n1 | inactive
17 | Cc1noc([C@@H]2CC(F)(F)CN2C(=O)c2ccc(F)cn2)n1 | inactive
18 | CN(Cc1ccnn1C)C1CCc2ccccc21 (stereo unspecified) | inconclusive: 22.4 µM [inhibitor, full curve]
19 | Cc1cc(=O)n(CC(=O)Nc2ccccc2)c(N2CCc3ccccc3C2)n1 | inconclusive: 50.1 µM [inhibitor, partial curve, poor fit]
20 | COc1ccc2c(c1)OCC(C(=O)NCc1cc3cc(OC)ccc3[nH]1)C2 (stereo unspecified) | inconclusive: 79.4 µM [inhibitor, partial curve]
21 | O=C(c1cc(-c2cccc(C(F)(F)F)c2)c2nncn2n1)N1CCC(N2CCCCC2)CC1 | inactive
22 | O=C1CC(c2ccccc2)N(C(=O)C2CC2)CCCN(C(=O)C2CCCCC2)CCN1 (stereo unspecified) | inactive
23 | O=C(NCc1ccc(F)cc1)N1CCC(Oc2ncccc2C(=O)N2CCCCC2)C1 (stereo unspecified) | inactive
24 | COc1ccc(OC)c(NC(=O)N2CCCN(C)c3ccccc32)c1 | inconclusive: 44.7 µM [inhibitor, partial curve, poor fit]

Row | Compound | Potency
25 | Cc1nn(-c2ccc(F)cc2)c(Oc2ccccc2)c1CCC(=O)N1CCOCC1 | inconclusive: 50.1 µM [inhibitor, partial curve, poor fit]
26 | O=C1N(c2ccccc2)CC12CCN(S(=O)(=O)Cc1ccccc1)CC2 | inconclusive: 39.8 µM [inhibitor, partial curve, poor fit]
27 | Cc1cc(C)cc(NC(=O)[C@H]2CCC[C@H]2NC(=O)c2cnc(C)cn2)c1 | inactive
28 | COc1ccc(-c2n[nH]c3c2CC(=O)N(Cc2ccccc2)C3)cc1OC | inconclusive: 8.91 µM [inhibitor, full curve, poor fit]
29 | NC(=O)Cn1ccc2cc(OCC3CCN(c4cnccn4)CC3)cnc21 | inconclusive: 89.1 µM [inhibitor, partial curve, poor fit]
30 | CN1c2cc(C(=O)Nc3ccc(Cl)c(F)c3)ccc2C(=O)N2CCCCC21 (stereo unspecified) | inconclusive: 50.1 µM [inhibitor, partial curve, poor fit]
31 | CC(=O)Nc1ccc(CN2CCC3CC(=O)NCCC3C2)cc1 (stereo unspecified) | inconclusive: 89.1 µM [inhibitor, single point]
32 | O=C(NC1CCCN(c2cc(-c3ccc(F)cc3)[nH]n2)C1)c1ccc2ncccc2c1 (stereo unspecified) | inconclusive: 44.7 µM [inhibitor, partial curve, poor fit]
33 | CCCNC(=O)N1CCC(c2nc(CCOc3cccc(C)c3)no2)C1 (stereo unspecified) | inconclusive: 11.2 µM [inhibitor, full curve, poor fit]
34 | COc1ccc(CN2CCc3nc(N4CCN(C)CC4)[nH]c(=O)c3CC2)c(Cl)c1OC | inactive
35 | COc1cccc(CN2C[C@@H](F)[C@@H](OCc3nc4ccccc4o3)C2)c1 | inactive
36 | Cc1ccc(C(=O)N2CCCC(n3cc(-c4nc(C(C)C)no4)nn3)C2)cc1C (stereo unspecified) | inconclusive: 44.7 µM [inhibitor, partial curve, poor fit]
37 | COCCCn1c(C)cc(C(=O)NCC(=O)N2CCCCCNC(=O)CC2c2ccccc2)c1C (stereo unspecified) | inactive
38 | O=C(NCCc1ccc(Cl)cc1)c1ccc2nnc(CC3CC3)n2c1 | inconclusive: 39.8 µM [inhibitor, partial curve, poor fit]
39 | COCC(=O)N(C1CCOCC1)C1CCN(C(=O)c2ccc(C)c(C)c2)CC1 | inactive
40 | COc1ccc(-c2noc(-c3cccn3CC(=O)NCc3ccc(F)cc3)n2)cc1F | inactive
41 | CCN1Cc2ccccc2N(C[C@@H](O)COCc2ccccc2)CCC1=O | inconclusive: 44.7 µM [inhibitor, partial curve, poor fit]
42 | COC(=O)c1ccc2c(c1)nc1n2[C@@H](CNCc2cccnc2)COC1 | inactive
43 | CN1Cc2ccc(NCc3ccccc3)nc2C(C)(C(=O)NC2CCC2)C1 (stereo unspecified) | inconclusive: 70.8 µM [inhibitor, partial curve, poor fit]
44 | O=C(NC1CCN(c2nccc(Nc3ccccc3Cl)n2)CC1)C1CC1 | active: 28.2 µM
45 | O=C1NCc2ccccc2CC12CCN(Cc1ccc(F)cc1O)CC2 | inactive
46 | CC(C)C[C@@H]1N[C@H](C(=O)NCc2ccccc2Cl)Cc2c[nH]c3cccc1c23 | active: 31.6 µM
47 | Cc1ccccc1C(=O)N1CCc2nc(C3CC3)nc(-c3ccc(O)cc3)c2CC1 | inactive
48 | COCC(=O)NC1CCC12CCN(Cc1cccc(F)c1)CC2 (stereo unspecified) | inactive

Row | Compound | Potency
49 | O=C(O)CCC(=O)N1Cc2ccccc2CC2(CCCN(Cc3ccccn3)C2)C1 (stereo unspecified) | inactive
50 | O=C(NC1CCN(CCn2nc3n(c2=O)CCCC3)C1)c1cccc(Cl)c1 (stereo unspecified) | inactive
51 | CCN1c2cc(C(=O)NCc3ccc(C)c(C)c3)ccc2C(=O)N2CCCCCC21 (stereo unspecified) | inconclusive: 50.1 µM [inhibitor, partial curve, poor fit]
52 | O=C(c1ccc2c(c1)OCO2)N1CCCC2(C1)Nc1cccnc1NC2=NC1CCCC1 (stereo unspecified) | inactive
53 | O=C(c1ccc(Cl)cc1)N1CCN(c2cc(-c3ccc(Cl)cc3)[nH]n2)CC1 | active: 31.6 µM
54 | Cc1cccc2c1nc1n2[C@@H](CNC(=O)c2ccc3c(c2)OCO3)COC1 | inconclusive: 89.1 µM [inhibitor, partial curve, poor fit]
55 | O=C(NCc1nnc2n1C(C(=O)NCc1ccc(F)cc1)CC2)c1cccnc1 (stereo unspecified) | inactive
56 | O=C(C1CCCN1C(=O)c1cccc(-c2cccnc2)c1)N1CCC(Cc2ccccc2)CC1 (stereo unspecified) | inconclusive: 44.7 µM [inhibitor, partial curve, poor fit]
57 | CN1C(=O)CC[C@]2(C(=O)NCc3cccc(F)c3)CCCC[C@@H]12 | inactive
58 | CCOc1cccc(CNC(=O)c2ccc(CN3C(=O)NC4(CCOCC4)C3=O)cc2)c1 | inactive
59 | O=C(c1cccs1)N1CCCC(Cc2noc(-c3cccnc3)n2)C1 (stereo unspecified) | inconclusive: 56.2 µM [inhibitor, partial curve, poor fit]
60 | COCCC(=O)N1CCC2(CCCCO2)CC1 | inactive
61 | CCCc1cc(C(=O)N2CCc3c(nc(-c4cccnc4)[nH]c3=O)C2)n[nH]1 | inactive
62 | Cc1ccccc1C1CCCN(C(=O)c2cnc(-c3cccnc3)nc2)C1 (stereo unspecified) | inconclusive: 56.2 µM [inhibitor, partial curve, poor fit]
63 | COc1ccc(CNC(=O)c2cc3c(N4CCSCC4)nc(C)cn3n2)c(OC)c1 | inconclusive: 44.7 µM [inhibitor, partial curve, poor fit]
64 | Cc1ccccc1-c1nc(C2CC(=O)N(C3CCCCC3)C2)no1 (stereo unspecified) | inconclusive: 50.1 µM [inhibitor, partial curve, poor fit]
65 | Cn1ncc2c(C(=O)Nc3ccccc3F)cc(-c3ccc(C(F)(F)F)cc3)nc21 | active: 35.5 µM
66 | Cc1ccc(C(=O)N2CCCC(C(=O)N3CCCC(c4nc5ccncc5[nH]4)C3)C2)cc1 (stereo unspecified) | inactive
67 | O=C1CC(c2noc(-c3ccc(-c4ccccc4)cc3)n2)CN1c1ccc(F)cc1 (stereo unspecified) | inactive
68 | O=C1NC2(CN(Cc3ccc(F)cc3)C2)Oc2ccccc21 | inconclusive: 56.2 µM [inhibitor, partial curve, poor fit]
69 | C#CCNC(=O)C1CCN(C(=O)c2ccc(-c3cncnc3)cc2)CC1 | inactive
70 | O=C(CN1C(=O)C2(CCCCC2)C1c1ccccc1)NCCc1c[nH]c2ccccc12 (stereo unspecified) | inconclusive: 39.8 µM [inhibitor, partial curve, poor fit]
71 | c1ccc(Nc2cc3c(cn2)CN(Cc2ncc[nH]2)CCN3)cc1 | inconclusive: 89.1 µM [inhibitor, partial curve]
